The whole screen tested about 48,000 compounds, of which about 1,200 (2.5%) were called active. Another 2% or so got no clear call; they are omitted.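 How the source made its calls: active means activation of at least 60% and not above a set upper limit (about 1 call in 100 departs from these limits); inconclusive means activation of 40% to 60%, or above that upper limit; inactive means activation under 40%.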 This is one part of the list.
target: Probable G-protein coupled receptor 32 (Homo sapiens) (UniProt O75388); assay: qHTS for Agonists of Human Resolvin D1 Receptor DRV1; conditions: CHO-K1 GPR32 beta-arrestin PathHunter luminescence, 90 min; at 76.9 µM; active compounds read high; zero percent set by DMSO-only wells
How it was run: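 PathHunter enzyme-fragment complementation, CHO-K1 GPR32 stable line; 2,500 cells/well, overnight attach; cpd 90 min 37 °C 5% CO2; detection reagent 1 h RT; chemiluminescence. DMSO = EC0.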

Sequence of UniProt O75388 (O75388 whole entry, looked up, the tested form may be a part): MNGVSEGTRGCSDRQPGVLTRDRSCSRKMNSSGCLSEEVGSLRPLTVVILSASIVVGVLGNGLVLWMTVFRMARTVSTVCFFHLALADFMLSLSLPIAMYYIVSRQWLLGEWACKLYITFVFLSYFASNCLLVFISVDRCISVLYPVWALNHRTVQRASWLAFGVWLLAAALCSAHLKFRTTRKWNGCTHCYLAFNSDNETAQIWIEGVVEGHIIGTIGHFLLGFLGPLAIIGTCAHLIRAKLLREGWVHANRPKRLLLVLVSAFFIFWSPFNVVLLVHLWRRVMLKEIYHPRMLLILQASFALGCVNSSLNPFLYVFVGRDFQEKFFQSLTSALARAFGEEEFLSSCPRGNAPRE

activation, inactive:
CCC(CC)C(=O)Nc1cccc(-c2cn3cccnc3n2)c1 28.2%
COc1cccc(OCCn2c(-c3ccc(Cl)cc3)nc3ccccc3c2=O)c1 19%
Cc1ccc2c(=O)c(C(=O)c3cccc(Cl)c3)cn(CC(=O)NCc3ccccc3)c2n1 -0.317%
COc1cccc(Cn2c(=O)n(-c3cc(C)cc(C)c3)c(=O)c3oc4ccccc4c32)c1 -14.1%
CCOc1cc(CNC(=O)c2cc(-c3ccc(Cl)s3)nc3ccccc23)ccc1OC -4.61%
COc1ccc(CCNC(=O)Cn2c(=O)cc(C(F)(F)F)c3c(C)nn(C)c32)c(OC)c1 -3.52%
CCc1ccc(C2=CC(c3cccc(OC)c3OC)n3c(nc4ccccc43)N2)cc1 (stereo unspecified) -13.3%
CCc1ccc(NC(=O)C2CCN(c3ccc(Sc4ccc(C)cc4)nn3)CC2)cc1 19.5%
Cc1ccc(N2CCN(S(=O)(=O)c3nnc(NC(=O)c4cccc(F)c4)s3)CC2)cc1 11.4%
O=C(Cn1cccc1C(=O)c1ccccc1)NCc1ccc(Cl)cc1 -1.71%
CCCN1CCN(CCCNC(=O)c2cc3c(=O)[nH]c4ccccc4c3s2)CC1 10%
COc1ccc(NC(=O)CNC(=O)Cn2ccc3ccccc3c2=O)c(OC)c1 -4.37%
CCc1ccc(-c2nc(CN3CCCC(C(=O)NCc4ccccc4Cl)C3)c(C)o2)cc1 (stereo unspecified) -18.1%
C=C1C[C@H]2[C@@H]3C=C(C)C4=CC(=O)CC[C@]4(C)[C@H]3CC[C@]2(C)[C@@]1(OC(C)=O)C(C)=O -15.9%
Cc1ccc2c(c1)-c1nc(-c3ccccc3)cc(-c3ccccc3)c1CO2 -7.81%
COc1cc(-c2cc3n(C)c(C)c(CCC(=O)NC4CCC(C)CC4)c(=O)n3n2)cc(OC)c1OC (stereo unspecified) -18.9%
CCOc1ccc(N(CC)S(=O)(=O)N2CCCC(C(=O)NCc3ccccc3OCC)C2)cc1 (stereo unspecified) -22.7%
Cc1nn2c(=O)cc(COC(=O)c3ccccc3NC(=O)C3CCCCC3)nc2s1 -14.9%
O=C(NC1CCCC1)c1ccc2c(c1)N(Cc1c(F)cccc1Cl)C(=O)c1ccccc1S2 -10.4%
COc1cc(C(=O)N(CCCN(C)C)c2nc3c(OC)cccc3s2)cc(OC)c1OC -13.2%
CCOC(=O)C1=C(CN2CCN(c3ccc(Cl)cc3)CC2)NC(=O)NC1c1ccc(F)cc1 (stereo unspecified) -2.26%
NC(=O)COc1ccc(-c2noc(COc3ccc(Cl)cc3)n2)cc1 9.68%
O=C(CSc1nc2c([nH]c3ccccc32)c(=O)n1-c1ccccc1)Nc1ccccc1C(F)(F)F -20.9%
Cc1nn(CC(=O)NC(C)c2ccccc2)c(=O)c2cc3occc3n12 (stereo unspecified) 3.24%
COc1cccc2c1Oc1ncccc1N(C(=O)CCC(=O)NCc1ccc(OC(C)C)cc1)C2 -14%
NS(=O)(=O)c1ccc(CCNC(=O)Cn2c(=O)c3cccn3c3ccc(F)cc32)cc1 -7.37%
COc1ccc2c(c1)CC(C(=O)Nc1c(C)cc(C)cc1C)CO2 (stereo unspecified) -20.3%
CCc1ccccc1-n1nnc(-c2nc(-c3ccccc3F)no2)c1C 4.37%
O=C(Nc1cccc(F)c1)C1CCN(c2nc3ccccc3nc2C(F)(F)F)CC1 -21.7%
Cc1ccc(-n2c3c(c(=O)[nH]c2=O)C(NC(=O)C(C)(C)C)(C(F)(F)F)C(=O)N3)cc1 (stereo unspecified) -24.7%
COc1cc(CNCCCSc2nnnn2C)cc(Br)c1OC -6.18%
COc1cccc(C(=O)NCC(c2ccc3c(c2)OCO3)N2CCN(C)CC2)c1 (stereo unspecified) -1.81%
Cn1c(=O)n(C)c2cc(NS(=O)(=O)c3ccc(Cl)cc3)c(NCc3ccccc3)cc21 7.63%
COc1cccc(NC(=O)CSC2=Nc3ccccc3C3=NC(CCC(=O)NC4CCCCC4)C(=O)N23)c1 (stereo unspecified) -0.0151%
COc1ccc(OC)c(NC(=O)CCCOc2cc(=O)n(C)c3ccccc23)c1 2.44%
CCn1cc(C(=O)N2CCN(c3ccccc3OC)CC2)c2cc(OC)c(OC)cc2c1=O 5.29%
N[C@H]1C(O)O[C@H](CO)[C@@H](O)[C@@H]1O (stereo partly specified) 14.6%
CN1C2CC(OC(=O)[C@H](CO)c3ccccc3)CC1C1OC12 (stereo partly specified) -3.64%
CCc1ccc(NC(=O)c2ccc(CNS(=O)(=O)c3ccc4c(c3)C(C)(C)C(=O)N4C)cc2)cc1 -5.11%
CCOc1cccc2sc(=NC(=O)c3ccc(S(=O)(=O)N4CCOCC4)cc3)n(C)c12 16.4%
CCC(Oc1ccccc1)C(=O)Nc1nnc(S(=O)(=O)N2CCCC2)s1 (stereo unspecified) -10.9%
CCc1ccc(OCC(=O)Nc2c(C(=O)c3ccc(Br)cc3)oc3ccccc23)cc1 -11.1%
CCOC(=O)c1cnc2c(OC)cccc2c1N1CCN(c2ccccc2F)CC1 26.4%
COc1ccc(CCNC(=O)CCCCn2c(=O)c3ccccc3n(Cc3cccc(C)c3)c2=O)cc1OC -30.3%
O=c1oc(Cl)c(Cl)c2ccccc12 -6.48%
COc1ccc(NC(=O)c2oc3ccccc3c2NC(=O)c2cc(=O)c3ccccc3o2)cc1 3.5%
CCCCN(CCCC)CCn1cnc2c([nH]c3ccc(OC)cc32)c1=O -2.24%
COc1ccc(C(=O)Nc2ccc3c(c2)CCCN3S(=O)(=O)c2ccc(C)cc2)cc1 -13.8%
COc1ccc(CNC(=O)c2ccc(-c3nc(CSc4ccccc4)c(C)o3)cc2)cc1 34.5%
COc1ccccc1Nc1nn2c(=O)c3ccc(C(=O)NC4CCCCC4)cc3nc2s1 13.3%
CCOc1ccc(N(CC(=O)NCc2ccc(C)cc2)S(=O)(=O)c2c(C)[nH]c(=O)[nH]c2=O)cc1 -2.66%
Brc1ccc(-c2csc(-c3nc(-c4ccc(Br)s4)cs3)n2)cc1 11.9%
CCOC(=O)N1CCc2c(sc(NCc3ccc(N(C)C)cc3)c2C(=O)Nc2ccccc2OCC)C1 38.2%
CCN(CC)CCNC(=O)Cn1cnc2sc(C)c(S(=O)(=O)N3CCN(c4ccccc4OC)CC3)c2c1=O 4.59%
CCc1ccc(NC(=O)c2sc3nc(-c4ccccc4)cn3c2C)cc1 23.3%
CCN1CCN(C(c2cccc(OC)c2)c2c(O)cc(C)n(Cc3ccco3)c2=O)CC1 (stereo unspecified) -14.9%
CC(NC(=O)c1ccc(Cn2c(SCc3ccccc3)nc3cccnc32)cc1)c1ccccc1 (stereo unspecified) 18.7%
CC(CCc1ccccc1)NC(=O)Cn1ncc2c3ccccc3n(Cc3cccc(Cl)c3)c2c1=O (stereo unspecified) -0.913%
COc1ccc(CN(C(=O)c2ccc(OCC(C)C)cc2)C2CCS(=O)(=O)C2)cc1 (stereo unspecified) -27.4%
CCOc1ccc(NC(=O)CSc2oc(-c3ccco3)nc2S(=O)(=O)c2ccc(Cl)cc2)cc1 -18.6%
COc1cccc(C2C=C(c3ccc(C)cc3)Nc3c(C(=O)Nc4ccc(F)cc4)cnn32)c1OC (stereo unspecified) -0.872%
O=C(Nc1ccccc1C(F)(F)F)N1Cc2ccccc2Oc2ncccc21 -19.6%
COc1ccc(NC(=O)CSc2nc(-c3ccccc3)c3ccccc3n2)cc1 -18.1%
CCOc1ccc(-c2n[nH]c3c2C(c2cccs2)N(c2ccc(Br)cc2)C3=O)cc1 (stereo unspecified) -14.7%
CCOC(=O)c1cc(-c2ccc(OC)cc2)n(CCC(=O)NC2CCC(C)CC2)c1C (stereo unspecified) -29.3%
Cc1cccc(C(=O)NCc2nnc(SCC(=O)Nc3ccccc3F)n2-c2ccccc2)c1 -11.3%
CCc1cccc(-n2nnc(-c3nc(-c4ccc5c(c4)OCO5)no3)c2C)c1 -9.33%
COc1ccc(N2CCN(C(=O)Nc3ccc(Cl)cc3)CC2)cc1 19.5%
COc1ccc(S(=O)(=O)N2CCN(C(=O)c3cc(-c4ccc(Br)cc4)n[nH]3)CC2)cc1OC 33.7%
COc1ccc(-n2nc3c(N4CCCC(C(=O)NCc5ccccc5C)C4)nnc(C)c3c2C)cc1 (stereo unspecified) 12.8%
O=C(NCCn1cc(SCc2ccc(C(F)(F)F)cc2)c2ccccc21)c1cccs1 0.635%
Cc1nnc(SCC(=O)NCc2cccc(F)c2)c2nn(-c3ccccc3)c(C)c12 5.25%
COc1ccc2c(c1)c(CC(=O)OC/C=C(\C)CC/C=C(\C)CCC=C(C)C)c(C)n2C(=O)c1ccc(Cl)cc1 12.5%
Cc1cccc(NC(=O)CSc2nc(=O)n(CCN3CCOCC3)c3c2CCC3)c1 -3.58%
CNC(=O)C1CCC(Cn2c(=O)c3sccc3n(CC(=O)Nc3ccc(C)cc3C)c2=O)CC1 (stereo unspecified) -11.3%
Cc1ccc(-n2ncc(C(=O)NCCN3CCc4ccccc4C3)c2C2CCN(C(=O)OC(C)(C)C)CC2)c(C)c1 -2.11%
CN(c1nnc(NC(=O)Nc2ccc(Br)cc2)s1)C1CCCCC1 2.67%
COc1ccccc1CNc1ncnc2onc(-c3ccc(Cl)cc3)c12 29.7%
COc1cccc(NC(=O)CN2C(=O)COc3ccc(S(=O)(=O)N4CCOCC4)cc32)c1 -18.2%
Cc1ccc(NC(=O)Nc2csc3c2CCCC3)c(C)c1 -13.8%

activation, active:
CC(=O)N1c2ccc(S(=O)(=O)NCC3CCC(C(=O)Nc4cccc(F)c4)CC3)cc2CC1C (stereo unspecified) 64.2%

— PubChem BioAssay AID1346428 (National Center for Advancing Translational Sciences (NCATS), 2018)
